PubChem BioAssay (NCATS)
Where “and” joins values, the source holds several entries; their conditions need not be identical. Equal values may be shown once. Inconclusive results, whose numbers are uncertain, are shown with a selection of clear calls. Potencies beside an inconclusive call are fits to weak or partial responses and may not hold up. Calls of active or inactive are those of the source. Calls come from the whole dose curve; as a rule, active = well fitted cell-killing curve with a large enough effect; inconclusive = small, poorly fitted or top-dose-only effect, or effect the other way; inactive = no such curve, though single readings can be large or run the other way.

Legend:
[1] = Viability qHTS for spleen associated tyrosine kinase inhibitor (SYKi) naive MV4-11 cells (AID 1963823); details: MV4-11 AML viability, CellTiter-Glo luminescence, 72 h; series mostly up to 45 µM; note: nearly all actives have a fitted effect of over 40% in size
Procedure, shortened: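 SYK inhibitor-naive MV4-11 cells, 500 per well, exposed to compounds for 72 hr at 37 C, 5% CO2. Viability read as CellTiter-Glo luminescence after 10 min at room temperature.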

[2] = Viability qHTS for spleen associated tyrosine kinase inhibitor (SYKi) drug resistant MV4-11 cells (AID 1963824); details: SYKi-resistant MV4-11 viability, CellTiter-Glo, 72 h; series mostly up to 45 µM; note: nearly all actives have a fitted effect of over 35% in size
Procedure, shortened: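 CellTiter-Glo luminescence, read 10 min after reagent addition, reports viability after a 72 hr compound exposure. Cells are an MV4-11 line made resistant to SYK inhibition, seeded at 500 per well onto compound-containing plates.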
Potency is the fitted concentration of half-maximal effect; tags give direction and shape of the fitted curve.

Row | Compound | Potency [1] | Potency [2]
1 | CNCc1cc(-c2ccccc2F)n(S(=O)(=O)c2cccnc2)c1 | inactive | active: 13 µM
2 | CN1CC(=O)N2[C@H](c3ccc4c(c3)OCO4)c3[nH]c4ccccc4c3C[C@@H]2C1=O | inactive | inactive and inconclusive: 33.2 µM [cytotoxic, single point]
3 | CC1=CC2/C=C(\C)CCC3OC(C)(C)OC3CCC(=O)C23C(=O)NC(CC(C)C)C3C1C (stereo unspecified) | inconclusive: 10 µM [cytotoxic, partial curve] | active: 7.96 µM
4 | NC(=O)NC(=O)Cc1ccccc1 | inconclusive: 0.944 µM [rising, full curve, poor fit] | inactive
5 | CC(C)/C=C1\NC(=O)C(C(C)C)n2c1nc1c(c2=O)C=CC=CO1 (stereo unspecified) | inconclusive: 20.2 µM [cytotoxic, single point] | inconclusive: 10.1 µM [cytotoxic, partial curve, poor fit]
6 | N#CSc1cc(SC#N)c(N)nc1N | inconclusive: 4.91 µM [cytotoxic, partial curve] | inconclusive: 3.1 µM [cytotoxic, partial curve, poor fit]
7 | C/C(=C\CCC(C)C1=CCC2(C)OC3=C(CC12)C(=O)C(O)CC3)CO (stereo unspecified) | inactive | inactive
8 | C/C=C(\C)C(=O)O[C@H]1C[C@](C)(O)[C@H]2CC=C(C)[C@H]2[C@@H]2OC(=O)[C@H](C)[C@H]21 | inconclusive: 10.1 µM [cytotoxic, partial curve, poor fit] | inconclusive: 12.8 µM [cytotoxic, partial curve]
